Measurements from the supplement of paper PMC3334620.
Over roughly 33,000 sequences, “E-score (-0.5 to 0.5)” has its median near -0.032; the highest 2% begin near 0.36. Some of the results follow.

biological target: T1, Sko1 (UniProt Q02100); experiment: PBM E-score (8-mer binding enrichment) (E-score (-0.5 to 0.5)); higher = stronger / more preferred TF binding; most listed sequences are background and not binding sites; settings: protein concentration: 200 nM; construct: GST-full length
T1 sequence: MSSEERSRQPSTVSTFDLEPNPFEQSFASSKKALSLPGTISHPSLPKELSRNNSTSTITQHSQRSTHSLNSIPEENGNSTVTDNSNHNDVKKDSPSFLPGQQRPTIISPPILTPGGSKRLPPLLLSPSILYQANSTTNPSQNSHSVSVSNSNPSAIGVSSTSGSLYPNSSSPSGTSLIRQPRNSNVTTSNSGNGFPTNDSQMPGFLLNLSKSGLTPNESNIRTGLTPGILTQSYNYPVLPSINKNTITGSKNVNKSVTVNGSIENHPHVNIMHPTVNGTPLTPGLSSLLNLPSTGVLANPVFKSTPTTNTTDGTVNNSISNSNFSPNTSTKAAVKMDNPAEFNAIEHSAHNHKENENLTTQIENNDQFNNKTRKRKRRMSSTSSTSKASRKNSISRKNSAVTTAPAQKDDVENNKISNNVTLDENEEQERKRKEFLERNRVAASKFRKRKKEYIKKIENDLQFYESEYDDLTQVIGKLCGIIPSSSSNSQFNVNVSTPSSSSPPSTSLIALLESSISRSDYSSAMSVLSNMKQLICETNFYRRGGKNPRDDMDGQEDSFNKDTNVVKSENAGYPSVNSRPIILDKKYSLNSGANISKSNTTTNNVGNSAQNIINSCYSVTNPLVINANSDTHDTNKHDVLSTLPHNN
Protocol: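 Universal 'all 10-mer' protein binding microarrays (Agilent AMADID 015681) probed with GST-tagged S. cerevisiae TFs (full-length or DBD) made by in vitro transcription/translation (PURExpress), about 100-200 nM. Bound TF was detected with fluorescent anti-GST. Each ungapped 8-mer (which stands for itself and its reverse complement) is scored by the PBM enrichment score (E-score), a modified Wilcoxon-Mann-Whitney statistic from -0.5 to +0.5, computed with the Universal PBM Analysis Suite. Scale: above 0.35 generally sequence-specific binding.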

Sequence	PBM E-score
AGCTTCCT	0.0027
AATCGGAA	0.0262
GGGGAGGA	-0.00888
ATGGTTGG	0.00874
AGTAATGG	0.122
ATTTCGTG	0.224
AGGACCCG	-0.266
GAACCTTA	-0.00846
ATAGCCGA	0.0688
TCGTCCCA	-0.0134
AACGCAGT	0.0823
CTAACAGC	-0.165
CAGCCCTA	-0.0666
AATATATA	0.189
ATTTGTAA	0.155
GGGTTCAC	-0.0986
GAGTATCC	-0.251
ATGCTGTA	0.0153
CATAGACC	-0.0132
GGGATCTA	-0.138
ATGATCAG	0.08
CAGTAGTA	-0.0279
GAGTATCA	0.0179
TCGCATCA	0.267

Sequence	PBM E-score
ATGTGAAA	0.152
ACCACCAA	-0.228
ACAATTCT	0.142
AAGTGCTC	-0.102
CTCAGTGA	-0.0446
GCTGTAGA	-0.176
ATCCGCAT	0.115
CTAGAACC	-0.118
AAACTTGT	0.157
CGATCTCA	-0.156
GGGCCGAA	-0.241
CCCCGAGG	-0.347
CGGTTAGA	-0.144
ACGTTCTG	0.256
ACATTGCA	0.044
CATGAAGC	-0.134
AACGCCCG	-0.151
ACGCAATA	0.45
GATGGTCC	-0.0569
CCAGGACA	-0.284
TATGTTGA	0.0854
GACGTCCA	0.331
AGTCAAGG	-0.216
ACACTTAC	0.201

Sequence	PBM E-score
GCTCGAAC	0.156
GCGAGGAA	-0.045
GGCTCCAC	-0.348
AACAGAGG	-0.205
ACTCACAC	0.0487
GTCCAAAC	-0.0821
AAATAGAC	0.0131
GTACCATA	0.14
AGAGGTTG	-0.169
CGTACGTC	0.45
ATAAAGCG	0.141
AGTTCGCG	-0.0222
CCGTCCGC	-0.269
GATGAGAA	0.012
AAGCAACA	0.0352
CAGGGTGC	-0.361
GGCCCCGA	-0.19
GAACCAGA	-0.2
AGATAGAG	-0.0489
CAAGTTCC	-0.0324
ACTGTAAC	-0.01
ACGCATCA	0.308
CAGTTGAA	0.00732
AAGTAGCG	0.0298

Sequence	PBM E-score
CGGTCAAG	-0.243
ATGGCACC	-0.269
AGTTTTAC	0.0669
CTTGACCA	-0.297
CGCGTTGC	0.209
CGGGTGCC	-0.319
GGGGGTCA	-0.366
TGTTTGAA	0.107
AGAATTCG	0.0226
ACGTGGTG	0.376
GACGCGTC	0.275
CGGCTAAA	0.0623
AACATGCG	0.0748
CCTAACGA	0.0621
AAAAAGAT	0.0678
AGGAAGTA	-0.199
CTCCCCGC	0.0782
AGGATGCG	-0.0291
ACTAGAAG	-0.0995
GTTCCGTA	0.0787
GTATACCA	-0.0338
AAACACTA	0.196
